Residue numbers refer to the chain shown, from its start. Values belong to the binder of their own block, whether it stands above or below them.
Columns and labels:
[1] = target: Aβ1-42 fibers (human); test: SPR
[2] = target: Aβ1-40 fibers (human); test: SPR

Kd [1]: 1300 nM | Kd [2]: 930 nM
B1: MS-R 3 Fab (antibody, V domains shown)
VH: [not shown - about 100 residues]LTHYARYYRYFDVWGQGTLVTVSS
VL: DIVLTQSPATLSLSPGERATLSCRASQSVSSSYLAWYQQKPGQAPRLLIYGASSRATGVPARFSGSGSGTDFTLTISSLEPEDFAVYYCQQVYNPPVTFGQGTKVEIKR

Kd [1]: 1000 nM | Kd [2]: 850 nM
B2: MS-R 8 Fab (antibody, V domains shown)
VH: [not shown - about 100 residues]LLSRGYNGYYHKFDVWGQGTLVTVSS
VL: B1 VL with V86T, V92L, Y93S, N94S, P95F, V97P
